The labels stand for the following.
B1: PhoQ; a variant is named by its letters at X, in order, P23837 (parent)
chain: MKKLLRLFFPLSLRVRFLLATAAVVLVLSLAYGMVALIGYSVSFDKTTFRLLRGESNLFYTLAKWENNKLHVELPENIDKQSPTMTLIYDENGQLLWAQRDVPWLMKMIQPDWLKSNGFHEIEADVNDTSLLLSGDHSIQQQLQEVREDDDDAEMTHSVAVNVYPATSRMPKLTIVVVDTIPVELKSSYMVWSWFIYVLSANLLLVIPLLWVAAWWSLRPIEALAKEVRELEEHNRELLNPATTRELTSLVRNLNRLLKSERERYDKYRTTLTDLTHSLKTPLXXLQXXLRSLRSEKMSVSDAEPVMLEQISRISQQIGYYLHRASMRGGTLLSRELHPVAPLLDNLTSALNKVYQRKGVNISLDISPEISFVGEQNDFVEVMGNVLDNACKYCLEFVEISARQTDEHLYIVVEDDGPGIPLSKREVIFDRGQRVDTLRPGQGVGLAVAREITEQYEGKIVAGESMLGGARMEVIFGRQHSAPKDE

Some of the results follow. Some results are limits rather than exact numbers.

In this assay the parent is B1. The assay is described as follows: enrichment ratio after two sorts for PhoP signalling (ratio (wild type AVST 3.29)); higher = more functional. The note with it: with PhoP (E. coli).
Take RMPP: the enrichment ratio was no more than 0.25.

Take EKSK: the enrichment ratio is no more than 0.25.

On to NDSK, for which the enrichment ratio is no more than 0.25.

Consider HVDF, for which the enrichment ratio is no more than 0.25.

With RISG, the enrichment ratio is no more than 0.25.

For DYYD, the enrichment ratio was no more than 0.25.

As to FECY, the enrichment ratio was no more than 0.25.

As to RDPW, the enrichment ratio was no more than 0.25.

Take KAPE: the enrichment ratio is no more than 0.25.

As for GFHA, the enrichment ratio was no more than 0.25.

Consider APGW, for which the enrichment ratio was no more than 0.25.

As to RQGW, the enrichment ratio is no more than 0.25.

SIQP: the enrichment ratio was no more than 0.25.

For RKDV, the enrichment ratio is no more than 0.25.

In the case of SSDD, the enrichment ratio was no more than 0.25.

DETP: the enrichment ratio was no more than 0.25.

Regarding VACS, the enrichment ratio is no more than 0.25.

Consider ADQL, for which the enrichment ratio was no more than 0.25.

Consider VQVW, for which the enrichment ratio is no more than 0.25.

As to TMAM, the enrichment ratio is 26.9.

With RFYT, the enrichment ratio is no more than 0.25.

Regarding MYCL, the enrichment ratio was no more than 0.25.

On to MMEF, for which the enrichment ratio was no more than 0.25.

Turning to NSYV, the enrichment ratio is no more than 0.25.

As to AMWG, the enrichment ratio is no more than 0.25.

Consider REWY, for which the enrichment ratio was no more than 0.25.

As to PGCN, the enrichment ratio was no more than 0.25.

As for RPMY, the enrichment ratio is no more than 0.25.

As for QALM, the enrichment ratio is 10.2.

For EHKA, the enrichment ratio was no more than 0.25.

Regarding RTWK, the enrichment ratio is no more than 0.25.

IGHP: the enrichment ratio is no more than 0.25.

For the variant YRVH, the enrichment ratio is no more than 0.25.

On to NQWD, for which the enrichment ratio is no more than 0.25.

For FAFK, the enrichment ratio is no more than 0.25.

DDLN: the enrichment ratio is no more than 0.25.

Take NEMW: the enrichment ratio was no more than 0.25.

For the variant PESI, the enrichment ratio was no more than 0.25.

As to LMFT, the enrichment ratio was no more than 0.25.

Take ASER: the enrichment ratio was no more than 0.25.

For the variant FIQC, the enrichment ratio was no more than 0.25.

In the case of SCGF, the enrichment ratio came out at 6.99.

WKNF: the enrichment ratio was no more than 0.25.

Turning to FIKV, the enrichment ratio is no more than 0.25.

For YCTW, the enrichment ratio was no more than 0.25.

As to HAYY, the enrichment ratio was no more than 0.25.

As for EFNP, the enrichment ratio is no more than 0.25.

With YVFY, the enrichment ratio was no more than 0.25.

On to NGYP, for which the enrichment ratio was no more than 0.25.

As to SMAQ, the enrichment ratio amounted to 15.5.

As to EPDM, the enrichment ratio was no more than 0.25.

Consider RVNQ, for which the enrichment ratio was no more than 0.25.

With GRNW, the enrichment ratio was no more than 0.25.

As for VADF, the enrichment ratio was no more than 0.25.

Take VLFV: the enrichment ratio is no more than 0.25.

Consider DWQS, for which the enrichment ratio was no more than 0.25.

Regarding NSVC, the enrichment ratio is no more than 0.25.

As for EPKL, the enrichment ratio was no more than 0.25.

LGQV: the enrichment ratio was no more than 0.25.

With GNVQ, the enrichment ratio was 6.4.

Turning to INRF, the enrichment ratio is no more than 0.25.

Take GSKD: the enrichment ratio is no more than 0.25.

As for DLPP, the enrichment ratio is no more than 0.25.

On to YCPF, for which the enrichment ratio was no more than 0.25.

HRHT: the enrichment ratio is no more than 0.25.

Regarding AIWS, the enrichment ratio was no more than 0.25.

With AVYQ, the enrichment ratio was no more than 0.25.

Regarding YRPN, the enrichment ratio was no more than 0.25.

Consider HDYE, for which the enrichment ratio is no more than 0.25.

With TYMR, the enrichment ratio is no more than 0.25.

As to YPDE, the enrichment ratio was no more than 0.25.

HCMI: the enrichment ratio is no more than 0.25.

With SIWK, the enrichment ratio is 4.31.

For the variant VAMP, the enrichment ratio is no more than 0.25.

In the case of KRTR, the enrichment ratio was no more than 0.25.

Turning to NELH, the enrichment ratio came out at 2.12.

With EHNH, the enrichment ratio was no more than 0.25.

As to GSSK, the enrichment ratio is no more than 0.25.

As for NSKP, the enrichment ratio is no more than 0.25.

For the variant MCIQ, the enrichment ratio is no more than 0.25.

For QNTQ, the enrichment ratio was no more than 0.25.

Take PRRC: the enrichment ratio was no more than 0.25.

As for KGKA, the enrichment ratio was no more than 0.25.

Take GQGL: the enrichment ratio is no more than 0.25.

As for WIVD, the enrichment ratio was no more than 0.25.

Consider PGTV, for which the enrichment ratio is no more than 0.25.

Take IEEY: the enrichment ratio was no more than 0.25.

Turning to LIVP, the enrichment ratio is no more than 0.25.

On to ACAV, for which the enrichment ratio was 3.32.

Turning to VPRP, the enrichment ratio is no more than 0.25.

Take WFTV: the enrichment ratio is no more than 0.25.

For the variant NPSI, the enrichment ratio was no more than 0.25.

Regarding RLDE, the enrichment ratio is no more than 0.25.

Take FFCS: the enrichment ratio is no more than 0.25.

For the variant FVTM, the enrichment ratio is 1.76.

Consider GCYF, for which the enrichment ratio is no more than 0.25.

With HPVV, the enrichment ratio is no more than 0.25.

For PKIV, the enrichment ratio was no more than 0.25.

For IPSV, the enrichment ratio was no more than 0.25.

With MKDY, the enrichment ratio was no more than 0.25.

On to RGCY, for which the enrichment ratio is no more than 0.25.

In the case of AMGI, the enrichment ratio was found to be 6.8.

LQSC: the enrichment ratio was no more than 0.25.

For VTEW, the enrichment ratio was no more than 0.25.

As for NITY, the enrichment ratio is no more than 0.25.

Consider TTAC, for which the enrichment ratio came out at 3.47.

EDSH: the enrichment ratio was no more than 0.25.

Take ELSA: the enrichment ratio was no more than 0.25.

With SFYF, the enrichment ratio was no more than 0.25.

With QYGA, the enrichment ratio is no more than 0.25.

Take PFQP: the enrichment ratio was no more than 0.25.

Regarding EDPE, the enrichment ratio is no more than 0.25.

Regarding ANAY, the enrichment ratio was determined as 36.4.

As to WLIV, the enrichment ratio is no more than 0.25.

As for PCQP, the enrichment ratio was determined as 0.47.

With YPKR, the enrichment ratio was no more than 0.25.

Turning to VEGG, the enrichment ratio is no more than 0.25.

As for TFFC, the enrichment ratio is no more than 0.25.

Turning to SVTC, the enrichment ratio was determined as 3.84.

Regarding HYPF, the enrichment ratio is no more than 0.25.

Take NGKM: the enrichment ratio was no more than 0.25.

For the variant DQSC, the enrichment ratio was no more than 0.25.

As to MQEA, the enrichment ratio was no more than 0.25.

Regarding HCSF, the enrichment ratio was no more than 0.25.

In the case of IDHR, the enrichment ratio is no more than 0.25.

As to SDTG, the enrichment ratio was no more than 0.25.

In the case of NNKP, the enrichment ratio is no more than 0.25.

Turning to DLIG, the enrichment ratio is no more than 0.25.

VSEI: the enrichment ratio was no more than 0.25.

On to TCTR, for which the enrichment ratio is 4.24.

For the variant WRPS, the enrichment ratio was no more than 0.25.

On to WRMC, for which the enrichment ratio is no more than 0.25.

In the case of SIYF, the enrichment ratio is no more than 0.25.

Take FALG: the enrichment ratio was found to be 6.82.

EGFN: the enrichment ratio was no more than 0.25.

As to RQYW, the enrichment ratio was no more than 0.25.

With PCPQ, the enrichment ratio is no more than 0.25.

Turning to PVYL, the enrichment ratio is no more than 0.25.

Turning to REHG, the enrichment ratio was no more than 0.25.

For the variant YTNE, the enrichment ratio is no more than 0.25.

As to HVSV, the enrichment ratio was no more than 0.25.

NTPK: the enrichment ratio was no more than 0.25.

In the case of QIHN, the enrichment ratio is no more than 0.25.

Take QYED: the enrichment ratio was no more than 0.25.

On to LENM, for which the enrichment ratio is no more than 0.25.

Regarding WDLF, the enrichment ratio was no more than 0.25.

As to VYPY, the enrichment ratio is no more than 0.25.

As to KSWW, the enrichment ratio was no more than 0.25.

Consider VNMY, for which the enrichment ratio is no more than 0.25.

On to MCAE, for which the enrichment ratio was no more than 0.25.

For MHYI, the enrichment ratio was no more than 0.25.

For the variant LGCR, the enrichment ratio is no more than 0.25.

Take GHGM: the enrichment ratio was no more than 0.25.

In the case of THYT, the enrichment ratio is no more than 0.25.

As to FSRQ, the enrichment ratio was no more than 0.25.

For the variant HSYQ, the enrichment ratio was no more than 0.25.

For YTYQ, the enrichment ratio was no more than 0.25.

For the variant LACH, the enrichment ratio is no more than 0.25.

As for MLGP, the enrichment ratio was no more than 0.25.

RQAG: the enrichment ratio is no more than 0.25.

As for HQRH, the enrichment ratio is no more than 0.25.

Take TDDT: the enrichment ratio is no more than 0.25.

Turning to FSEN, the enrichment ratio is no more than 0.25.

In the case of ILPD, the enrichment ratio is no more than 0.25.

Consider WHCK, for which the enrichment ratio is no more than 0.25.

On to GKAA, for which the enrichment ratio was no more than 0.25.

In the case of NSKK, the enrichment ratio is no more than 0.25.

As to DAVL, the enrichment ratio is no more than 0.25.

Consider YSIE, for which the enrichment ratio was no more than 0.25.

On to YNYK, for which the enrichment ratio was no more than 0.25.

Turning to PWQS, the enrichment ratio was no more than 0.25.

For RECK, the enrichment ratio was no more than 0.25.

Turning to QKSH, the enrichment ratio is no more than 0.25.

Consider YAPD, for which the enrichment ratio is no more than 0.25.

In the case of MGPI, the enrichment ratio was no more than 0.25.

As to HCAF, the enrichment ratio was no more than 0.25.

For WWFR, the enrichment ratio was no more than 0.25.

NVIF: the enrichment ratio is no more than 0.25.

In the case of QAHI, the enrichment ratio came out at 0.526.

As to FWRY, the enrichment ratio is no more than 0.25.

For INFM, the enrichment ratio is no more than 0.25.

With YNYQ, the enrichment ratio is no more than 0.25.

Take IGFE: the enrichment ratio is no more than 0.25.

On to RSPE, for which the enrichment ratio was no more than 0.25.

WSRK: the enrichment ratio was no more than 0.25.

For TPYG, the enrichment ratio is no more than 0.25.

ASAL: the enrichment ratio amounted to 11.7.

In the case of IGKY, the enrichment ratio was no more than 0.25.

For KLES, the enrichment ratio was no more than 0.25.

Consider HPLH, for which the enrichment ratio was no more than 0.25.

Take WRFL: the enrichment ratio is no more than 0.25.

For EVED, the enrichment ratio is no more than 0.25.

For the variant VPWM, the enrichment ratio is no more than 0.25.

For ASDE, the enrichment ratio is no more than 0.25.

Turning to KSTP, the enrichment ratio was no more than 0.25.
